Test results from patent publication US8735349B2, “Method for improving glucose tolerance in a diabetes type 2 patient of younger than 50 years and having postprandial plasma glucose concentration of at least 14 mmol/L” (priority 2011, dated 2014).

Test system: obese type 2 diabetic patients younger than 50 and not adequately controlled with metformin
Settings: human, in vivo

N[C@@H](CC(=O)N1CCn2c(nnc2C(F)(F)F)C1)Cc1cc(F)c(F)cc1F [sitagliptin]
% of patients with TEAE: Abdominal distension: 0.6%
% of patients with TEAE: Abdominal pain: 2.5%
% of patients with TEAE: Abdominal pain upper: 3.7%
% of patients with TEAE: Alanine aminotransferase increased: 1.2%
% of patients with TEAE: Anaemia: 1.2%
% of patients with TEAE: Anxiety: 1.9%
% of patients with TEAE: Any class: 60.9%
% of patients with TEAE: Arthralgia: 1.9%
% of patients with TEAE: Asthenia: 0.6%
% of patients with TEAE: BLOOD AND LYMPHATIC SYSTEM DISORDERS: 1.2%
% of patients with TEAE: Back pain: 2.5%
% of patients with TEAE: Bronchitis: 2.5%
% of patients with TEAE: CARDIAC DISORDERS: 3.1%
% of patients with TEAE: Cellulitis: 1.2%
% of patients with TEAE: Constipation: 0.6%
% of patients with TEAE: Cough: 1.2%
% of patients with TEAE: Dermatitis: 1.2%
% of patients with TEAE: Diarrhoea: 7.5%
% of patients with TEAE: Dizziness: 3.1%
% of patients with TEAE: Dyslipidaemia: 1.2%
% of patients with TEAE: Dyspepsia: 1.9%
% of patients with TEAE: Ear infection: 0.6%
% of patients with TEAE: Erectile dysfunction: 1.2%
% of patients with TEAE: Fatigue: 1.2%
% of patients with TEAE: Flatulence: 2.5%
% of patients with TEAE: GASTROINTESTINAL DISORDERS: 21.1%
% of patients with TEAE: GENERAL DISORDERS AND ADMINISTRATION SITE CONDITIONS: 6.8%
% of patients with TEAE: Gastritis: 0.6%
% of patients with TEAE: Gastroenteritis: 4.3%
% of patients with TEAE: Gout: 1.2%
% of patients with TEAE: HEPATOBILIARY DISORDERS: 0.6%
% of patients with TEAE: HLGT: Administration site reactions: 1.9%
% of patients with TEAE: HLGT: Anxiety disorders and symptoms: 1.9%
% of patients with TEAE: HLGT: Bone and joint injuries: 3.7%
% of patients with TEAE: HLGT: Cardiac arrhythmias: 1.9%
% of patients with TEAE: HLGT: Cardiac disorder signs and symptoms: 1.2%
% of patients with TEAE: HLGT: Epidermal and dermal conditions: 1.9%
% of patients with TEAE: HLGT: Gastrointestinal inflammatory conditions: 1.9%
% of patients with TEAE: HLGT: Gastrointestinal investigations: 1.2%
% of patients with TEAE: HLGT: Gastrointestinal motility and defaecation conditions: 9.3%
% of patients with TEAE: HLGT: Gastrointestinal signs and symptoms: 14.3%
% of patients with TEAE: HLGT: General system disorders NEC: 5.6%
% of patients with TEAE: HLGT: Glucose metabolism disorders (incl diabetes mellitus): 4.3%
% of patients with TEAE: HLGT: Headaches: 9.3%
% of patients with TEAE: HLGT: Hepatobiliary investigations: 1.2%
% of patients with TEAE: HLGT: Infections - pathogen unspecified: 24.2%
% of patients with TEAE: HLGT: Injuries NEC: 1.2%
% of patients with TEAE: HLGT: Joint disorders: 1.9%
% of patients with TEAE: HLGT: Lipid metabolism disorders: 1.9%
% of patients with TEAE: HLGT: Neurological disorders NEC: 4.3%
% of patients with TEAE: HLGT: Purine and pyrimidine metabolism disorders: 1.9%
% of patients with TEAE: HLGT: Respiratory disorders NEC: 3.7%
% of patients with TEAE: HLGT: Sexual dysfunctions, disturbances and gender identity disorders: 0.6%
% of patients with TEAE: HLGT: Sexual function and fertility disorders: 1.2%
% of patients with TEAE: HLGT: Sleep disorders and disturbances: 1.9%
% of patients with TEAE: HLGT: Urinary tract signs and symptoms: 2.5%
% of patients with TEAE: HLGT: Urolithiases: 0.6%
% of patients with TEAE: HLGT: Vascular hypertensive disorders: 2.5%
% of patients with TEAE: HLGT: Viral infectious disorders: 6.8%
% of patients with TEAE: HLT: Abdominal and gastrointestinal infections: 4.3%
% of patients with TEAE: HLT: Anxiety symptoms: 1.9%
% of patients with TEAE: HLT: Asthenic conditions: 2.5%
% of patients with TEAE: HLT: Cardiac signs and symptoms NEC: 1.2%
% of patients with TEAE: HLT: Coughing and associated symptoms: 1.2%
% of patients with TEAE: HLT: Dermatitis and eczema: 1.2%
% of patients with TEAE: HLT: Diarrhoea (excl infective): 7.5%
% of patients with TEAE: HLT: Digestive enzymes: 1.2%
% of patients with TEAE: HLT: Disturbances in consciousness NEC: 0.6%
% of patients with TEAE: HLT: Disturbances in initiating and maintaining sleep: 1.2%
% of patients with TEAE: HLT: Dyspeptic signs and symptoms: 1.9%
% of patients with TEAE: HLT: Ear infections: 1.2%
% of patients with TEAE: HLT: Elevated triglycerides: 0.6%
% of patients with TEAE: HLT: Erection and ejaculation conditions and disorders: 1.2%
% of patients with TEAE: HLT: Flatulence, bloating and distension: 3.1%
% of patients with TEAE: HLT: Gastritis (excl infective): 0.6%
% of patients with TEAE: HLT: Gastrointestinal atonic and hypomotility disorders NEC: 1.9%
% of patients with TEAE: HLT: Injection site reactions: 1.2%
% of patients with TEAE: HLT: Joint related signs and symptoms: 1.9%
% of patients with TEAE: HLT: Limb injuries NEC (incl traumatic amputation): 2.5%
% of patients with TEAE: HLT: Lipid metabolism and deposit disorders NEC: 1.2%
% of patients with TEAE: HLT: Liver function analyses: 1.2%
% of patients with TEAE: HLT: Lower respiratory tract and lung infections: 2.5%
% of patients with TEAE: HLT: Nausea and vomiting symptoms: 6.8%
% of patients with TEAE: HLT: Neurological signs and symptoms NEC: 3.1%
% of patients with TEAE: HLT: Oedema NEC: 2.5%
% of patients with TEAE: HLT: Purine metabolism disorders NEC: 1.9%
% of patients with TEAE: HLT: Rate and rhythm disorders NEC: 1.2%
% of patients with TEAE: HLT: Renal lithiasis: 0.6%
% of patients with TEAE: HLT: Sexual desire disorders: 0.6%
% of patients with TEAE: HLT: Upper respiratory tract infections: 14.3%
% of patients with TEAE: HLT: Upper respiratory tract signs and symptoms: 1.9%
% of patients with TEAE: HLT: Urinary abnormalities: 1.9%
% of patients with TEAE: HLT: Urinary tract infections: 1.2%
% of patients with TEAE: HLT: Vascular hypertensive disorders NEC: 2.5%
% of patients with TEAE: HLT: Viral infections NEC: 3.7%
% of patients with TEAE: Headache: 9.3%
% of patients with TEAE: Hyperglycaemia: 1.2%
% of patients with TEAE: Hypertension: 2.5%
% of patients with TEAE: Hypertriglyceridaemia: 0.6%
% of patients with TEAE: Hypoglycaemia: 3.1%
% of patients with TEAE: Injection site haematoma: 1.2%
% of patients with TEAE: Insomnia: 1.2%
% of patients with TEAE: Joint injury: 1.2%
% of patients with TEAE: Libido decreased: 0.6%
% of patients with TEAE: Limb injury: 1.2%
% of patients with TEAE: Lipase increased: 0.6%
% of patients with TEAE: METABOLISM AND NUTRITION DISORDERS: 9.3%
% of patients with TEAE: Malaise: 1.2%
% of patients with TEAE: Microalbuminuria: 1.2%
% of patients with TEAE: NERVOUS SYSTEM DISORDERS: 12.4%
% of patients with TEAE: Nasopharyngitis: 7.5%
% of patients with TEAE: Nausea: 6.8%
% of patients with TEAE: Nephrolithiasis: 0.6%
% of patients with TEAE: Oedema peripheral: 2.5%
% of patients with TEAE: Oropharyngeal pain: 1.2%
% of patients with TEAE: PSYCHIATRIC DISORDERS: 4.3%
% of patients with TEAE: Pain in extremity: 1.2%
% of patients with TEAE: Palpitations: 1.2%
% of patients with TEAE: Pharyngitis: 1.9%
% of patients with TEAE: RENAL AND URINARY DISORDERS: 4.3%
% of patients with TEAE: REPRODUCTIVE SYSTEM AND BREAST DISORDERS: 1.2%
% of patients with TEAE: RESPIRATORY, THORACIC AND MEDIASTINAL DISORDERS: 5.0%
% of patients with TEAE: Respiratory tract infection: 1.2%
% of patients with TEAE: SKIN AND SUBCUTANEOUS TISSUE DISORDERS: 2.5%
% of patients with TEAE: Sinusitis: 0.6%
% of patients with TEAE: Somnolence: 0.6%
% of patients with TEAE: Tachycardia: 1.2%
% of patients with TEAE: Upper respiratory tract infection: 3.7%
% of patients with TEAE: Urinary tract infection: 1.2%
% of patients with TEAE: VASCULAR DISORDERS: 3.1%
Number of patients with TEAE: Abdominal distension: 1
Number of patients with TEAE: Abdominal pain: 4
Number of patients with TEAE: Abdominal pain upper: 6
Number of patients with TEAE: Alanine aminotransferase increased: 2
Number of patients with TEAE: Anaemia: 2
Number of patients with TEAE: Anxiety: 3
Number of patients with TEAE: Any class: 98
Number of patients with TEAE: Arthralgia: 3
Number of patients with TEAE: Asthenia: 1
Number of patients with TEAE: BLOOD AND LYMPHATIC SYSTEM DISORDERS: 2
Number of patients with TEAE: Back pain: 4
Number of patients with TEAE: Bronchitis: 4
Number of patients with TEAE: CARDIAC DISORDERS: 5
Number of patients with TEAE: Cellulitis: 2
Number of patients with TEAE: Constipation: 1
Number of patients with TEAE: Contusion: 0
Number of patients with TEAE: Cough: 2
Number of patients with TEAE: Decreased appetite: 0
Number of patients with TEAE: Depression: 0
Number of patients with TEAE: Dermatitis: 2
Number of patients with TEAE: Diarrhoea: 12
Number of patients with TEAE: Dizziness: 5
Number of patients with TEAE: Dyslipidaemia: 2
Number of patients with TEAE: Dysmenorrhoea: 0
Number of patients with TEAE: Dyspepsia: 3
Number of patients with TEAE: EYE DISORDERS: 0
Number of patients with TEAE: Ear infection: 1
Number of patients with TEAE: Erectile dysfunction: 2
Number of patients with TEAE: Fatigue: 2
Number of patients with TEAE: Flatulence: 4
Number of patients with TEAE: GASTROINTESTINAL DISORDERS: 34
Number of patients with TEAE: GENERAL DISORDERS AND ADMINISTRATION SITE CONDITIONS: 11
Number of patients with TEAE: Gastritis: 1
Number of patients with TEAE: Gastroenteritis: 7
Number of patients with TEAE: Gout: 2
Number of patients with TEAE: HEPATOBILIARY DISORDERS: 1
Number of patients with TEAE: HLGT: Administration site reactions: 3
Number of patients with TEAE: HLGT: Anxiety disorders and symptoms: 3
Number of patients with TEAE: HLGT: Appetite and general nutritional disorders: 0
Number of patients with TEAE: HLGT: Bone and joint injuries: 6
Number of patients with TEAE: HLGT: Cardiac arrhythmias: 3
Number of patients with TEAE: HLGT: Cardiac disorder signs and symptoms: 2
Number of patients with TEAE: HLGT: Depressed mood disorders and disturbances: 0
Number of patients with TEAE: HLGT: Epidermal and dermal conditions: 3
Number of patients with TEAE: HLGT: Gastrointestinal inflammatory conditions: 3
Number of patients with TEAE: HLGT: Gastrointestinal investigations: 2
Number of patients with TEAE: HLGT: Gastrointestinal motility and defaecation conditions: 15
Number of patients with TEAE: HLGT: Gastrointestinal signs and symptoms: 23
Number of patients with TEAE: HLGT: General system disorders NEC: 9
Number of patients with TEAE: HLGT: Glucose metabolism disorders (incl diabetes mellitus): 7
Number of patients with TEAE: HLGT: Headaches: 15
Number of patients with TEAE: HLGT: Hepatic and hepatobiliary disorders: 0
Number of patients with TEAE: HLGT: Hepatobiliary investigations: 2
Number of patients with TEAE: HLGT: Infections - pathogen unspecified: 39
